Measurements published in PubChem BioAssay AID761 (NMMLSC, 2007).
Hit rate of the full screen: of about 190,000 compounds, about 400 (0.21%) were called active. This list was built around the results that the source calls inconclusive (neither active nor inactive); the mix of calls is not that of the screen.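 The calls were made as follows: active = percent activity GTP binding at least 20 points away from the 100% baseline, either down as inhibitor or up as activator; inconclusive = compound flagged as likely green fluorescent from well-wide comparison; inactive = the rest.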

What follows are compounds tested against Cell division control protein 42 homolog (Homo sapiens) (UniProt P60953) (assay: wildtype Cdc42 fluorescent GTP binding changes, either direction – biochemical, multiplex bead flow cytometry, Bodipy-GTP, primary screen (AID 761;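 also: median bead fluorescence of bound Bodipy-FL-GTP at 100 nM; 0% = excess unlabeled GTP control and 100% = no compound control; below 100% means less GTP binding so inhibitor and above means activator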)). Details: GST-Cdc42 beads, at 10 µM, actives lie on both sides.
Sequence of UniProt P60953 (P60953 whole entry, looked up): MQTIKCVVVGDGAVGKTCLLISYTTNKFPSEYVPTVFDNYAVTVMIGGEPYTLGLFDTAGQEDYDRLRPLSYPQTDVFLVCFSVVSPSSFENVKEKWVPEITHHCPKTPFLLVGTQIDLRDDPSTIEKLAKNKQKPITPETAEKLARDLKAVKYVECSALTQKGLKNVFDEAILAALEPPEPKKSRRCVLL

Row | SMILES | percent activity (GTP binding)
1 | CCc1cccc(C)c1NC(=O)CO/N=C(\N)CC(=O)NC1CCCCC1 | inconclusive: 107%
2 | COc1ccccc1NS(=O)(=O)c1ccc(NC(=O)CCNC(=O)c2ccco2)cc1 | inactive: 100%
3 | ClCc1nnc(-c2cc3c(s2)CCCC3)o1 | inactive: 99%
4 | CC(=O)NC1C(=O)N(CC(C)C)c2ccccc21 (stereo not drawn) | inconclusive: 106%
5 | C(=N\Nc1nc2ccccc2s1)/c1ccco1 | inconclusive: 103%
6 | COC(=O)C1=C(C)OC(N)=C(C#N)C1C1CCCCC1 (stereo not drawn) | inactive: 101%
7 | CCOc1ccc(C(=O)NC2CCN(C(=S)NCc3ccco3)CC2)cc1 | inconclusive: 88%
8 | CCOC(=O)N1CCN(C(=O)c2ccc(CS(=O)(=O)c3ccccc3OC)o2)CC1 | inconclusive: 96%
9 | Cc1cccn2c(=O)c(C=NCCO)c(Nc3ccc(Cl)cc3)nc12 | inconclusive: 93%
10 | Oc1ccc2ccccc2c1/C=N/Nc1nnc(-c2ncc[nH]2)c2ccccc12 | inconclusive: 70%
11 | C#CC1CN(Cc2ccccc2)CC(C#C)N1C (stereo not drawn) | inconclusive: 107%
12 | COc1ccc(-c2c(C#N)c(N)nc3c2CCc2ccccc2-3)cc1OC | inactive: 98%
13 | C=CCn1c(C)cc(C(=O)Cn2nc(C(=O)O)c3ccccc3c2=O)c1C | inconclusive: 95%
14 | O=[N+]([O-])c1ccccc1/C=N/N1CCN(c2ccncc2S(=O)(=O)N2CCCCC2)CC1 | inactive: 99%
15 | COc1ccc(NC(=O)c2sc(Cl)nc2-c2ccccc2)cc1 | inactive: 104%
16 | COc1cc(/C=N/NC(=O)c2cc3ccccc3cc2O)ccc1OCCN1CCCCC1 | inactive: 97%
17 | CCOc1cc(C(=O)NC)cc(Br)c1OCc1ccccc1 | inconclusive: 91%
18 | CCCCNC(=O)C(=O)N/N=C/c1ccc(OCC(=O)Nc2cccc(OC)c2)c(OC)c1 | inactive: 104%
19 | COc1cccc(-n2nnnc2S(C)(=O)=O)c1 | active: 72%
20 | Cc1nn(C)cc1CNC(=O)C1C2CCC(O2)C1C(=O)O (stereo not drawn) | inactive: 100%
21 | CCCOc1ccc(N2C(=O)CC(SCc3nc4ccccc4[nH]3)C2=O)cc1 (stereo not drawn) | inactive: 100%
22 | Nc1nonc1C(=O)NCCN=Cc1cc(Cc2ccccc2)cc(Br)c1O | active: 125% [activator]
23 | COc1ccc(Nc2nnc(SCC(=O)N3CC(=O)Nc4ccccc43)s2)cc1 | inconclusive: 90%
24 | Clc1ccc2c(N/N=C/c3ccccc3Br)ccnc2c1 | inconclusive: 97%

Row | SMILES | percent activity (GTP binding)
25 | Cc1nn(-c2ccccc2)c(Cl)c1C1C(C#N)=C(N)OC2=C1C(=O)CCC2 (stereo not drawn) | inconclusive: 105%
26 | O=C(Nc1nccs1)c1cncc(Br)c1 | inactive: 100%
27 | CCN(CC)S(=O)(=O)c1cc(C(=O)Nc2cc(Cl)ccc2N2CCN(C)CC2)ccc1Cl | inconclusive: 101%
28 | CCc1c(C)sc(NC(=O)CC#N)c1C#N | inconclusive: 88%
29 | CCOC(=O)N1CCN(C(=O)CSCc2ccccc2Cl)CC1 | inactive: 99%
30 | CC(C)(C)CC(=O)NC(=S)NCc1ccco1 | inactive: 103%
31 | CN(c1ccc([N+](=O)[O-])cc1C(N)=O)C1CCCCC1 | inactive: 96%
32 | Cc1ccc(-n2c(SCc3cc(=O)n4ccsc4n3)nnc2-c2cccnc2)c(C)c1 | active: 146% [activator]
33 | COc1ccc(CCC(C)NCC2CCCCC2)cc1 (stereo not drawn) | inconclusive: 104%
34 | CCOC(=O)c1c(C)nc2c(c1-c1ccccc1)C(=O)CCC2 | inconclusive: 98%
35 | CCOc1nc(-c2ccncc2)nc2ccccc12 | inconclusive: 106%
36 | O=C(O)c1ccc(CNC(=O)c2ccc(C(F)(F)F)cc2)cc1 | inactive: 92%
37 | O=C(O)c1ccccc1OCc1ccccc1Br | active: 139% [activator]
38 | Cc1nn(CC(O)COc2ccc3c(c2)CCC3)c(C)c1Br (stereo not drawn) | inconclusive: 104%
39 | CC(C)C(=O)NC(C)C(c1cccs1)N1CCN(C)CC1 (stereo not drawn) | inconclusive: 103%
40 | CN1CCN(S(=O)(=O)c2cccc(C(=O)Nc3sc4c(c3C(N)=O)CCCC4)c2)CC1 | active: 79%
41 | CCn1c(NCc2cc(Br)ccc2NS(=O)(=O)c2ccc(C)cc2)nc2ccccc21 | inactive: 97%
42 | CCOc1cc(S(=O)(=O)N2CCN(Cc3ccccc3)CC2)ccc1Br | inconclusive: 87%
43 | Cc1cc(C(=O)OCC(=O)Nc2cc(S(=O)(=O)N(C)C)ccc2Cl)c2ccccc2n1 | inconclusive: 97%
44 | COc1ccc(CN(CC2CCC(C(=O)O)CC2)C(=S)Nc2cccc(C)c2)cc1 (stereo not drawn) | inactive: 97%
45 | COc1ccc(NC(=O)Cc2nnc(N)s2)cc1 | inconclusive: 88%
46 | Cc1cc(C)nc(Nc2nc(=O)c3ccccc3s2)n1 | active: 135% [activator]
47 | CC(C)CC1=NN(C(=O)c2ccncc2)C(O)(C(F)(F)F)C1 (stereo not drawn) | inactive: 100%
48 | COc1ccc([C@@H]2Sc3cc(OC)ccc3N(CCN(C(C)C)C(C)C)C(=O)[C@H]2OC(C)=O)cc1 | inconclusive: 105%
